Source: the RNAGym collection of RNA variant scans (doi:10.1093/nar/gkz1192)
The source gives no read counts; variants with many changes may rest on few reads.

B1: CPEB3 Ribozyme (parent)
chain: UAACAGGGGGCCACAGCAGAAGCGUUCACGUCGCAGCCCCUGUCAGAUUCUGGUGAAUCUGCGAAUUCUGCUGUAUAUCUC

Variants of: B1
Experiment: self-cleavage, relative activity (ratio to wild type); higher = more cleavage; in vitro, sequencing
In short: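 After error-prone PCR and barcoding, CPEB3 ribozyme mutant libraries were transcribed with T7 RNA polymerase at 37°C for 5 hours, then given 15 min with DNase I before an EDTA stop, and they cleaved during both steps. Reverse transcription with template switching preceded Illumina sequencing. Relative activity divides a variant's cleaved/total read fraction by the unmutated ribozyme's. At least 5 reads were required per variant, and three batches were averaged.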

| Variant | self-cleavage |
| --- | --- |
| U25G U26G U41C A47G | 0.1 |
| U26A A47G G63A A64G U66C U78C | 0.08 |
| U25C U51G U67C | 0.08 |
| U25G A28G A35U | 0.26 |
| U26A A47G U49A G53U G61C G70U A75U | 0.06 |
| U26A G30U G52A | 0.07 |
| U25C U58C U76C | 0.16 |
| U26A A65G U66C A75U A77G | 0.06 |
| U26A A35G A57G A65G | 0.92 |
| U26A A28G A35U U51C U80A | 0.11 |
| U25C U54G A56G | 0.09 |
| U26A U31C A45G U66C | 0.2 |
| U25C U51A U78C | 0.09 |
| U26A A45G G46A U58A U69C U80G | 0.05 |
| U26A A57G U66C | 0.38 |
| U25G U26A A77G U80C | 0.12 |
| U25C U60C U69C G70A | 0.12 |
| U26A G52C A56G | 1.02 |
| U25C U60C A64G U78C | 0.27 |
| U25C U51A U76A | 0.15 |
| U26A U31C G33A U51A U58C U72A | 0.12 |
| U25C U60A U74A | 0.27 |
| U25C U54C U69A | 0.11 |
| U25C U69C A75G | 0.13 |

| Variant | self-cleavage |
| --- | --- |
| U26A A28G A77G | 0.41 |
| U25C U58C A65G U78C U80C | 0.17 |
| U26A A35U U51C A65G U66C | 0.1 |
| U25C U49C U54C A56G U76C | 0.16 |
| U26A G52A C59U | 0.99 |
| U25C U49C U69C | 0.11 |
| U26A G36A U41C A45G U67A | 0.22 |
| U26A A28G C39G | 0.05 |
| U25G U41G U48C U54C A64G U80C | 0 |
| U26A A28G G36C | 0.19 |
| U26A A28G U31C A45G A64U | 0.22 |
| U26A A64G U67C | 0.19 |
| U26A C29U C34U U43C U48C U78C | 0.05 |
| U25C U60A U72A | 0.05 |
| U26A A28U U51A A64G | 0.36 |
| U25G U49C U74A | 0.05 |
| U25G C27U U31A | 0.27 |
| U26A A47G C62U | 0.1 |
| U25C U49C U58G C59U U80C | 0.05 |
| U25G C27U G30A G33C C38U A57C A65U | 0.04 |
| U26A C50U U51A A56G U66A | 0.15 |
| U26A A57C A64C U69C | 0.13 |
| U26A A28U U54G U58C A65G U67A A77G | 0.09 |
| U26A C40U U72G | 0.37 |

| Variant | self-cleavage |
| --- | --- |
| U26A A28C A35G A57C | 0.35 |
| U26A G33U U41A U43A | 0.29 |
| U25C U54G U76C | 0.41 |
| U25G A56G U66C A77G | 0.07 |
| U26A C38U A56G A65G | 0.07 |
| U25C U67C U69C | 0.15 |
| U26A G33A A45C | 0.09 |
| U25C U51A U80C | 0.45 |
| U25C U51A U80A | 0.08 |
| U25C U51C U69C U78C | 0.12 |
| U25C U51C U54A | 0.15 |
| U26A A56G U72A | 0.26 |
| U25C U51A C79U | 0.23 |
| U26A A56U U80G | 0.46 |
| U26A A47G U51G A57G U58C | 0.97 |
| U25C U60A U69C | 0.1 |
| U26A U31C U74C | 1.03 |
| U25C U51C U60C | 0.08 |
| U25C U66C U80C | 0.47 |
| U26A A45G U80C | 0.76 |
| U25C U69C U72C U78C | 0.06 |
| U26A A35U U41A G55A U60C | 0.07 |
| U25G U51A U74C U76A | 0.56 |
| U26A C27G U49A U51A A64G U67C | 0.06 |

| Variant | self-cleavage |
| --- | --- |
| U25C U72A G73U | 0.39 |
| U26A A45G A56G A65G G70A | 0.12 |
| U26A A35G U66C G70A | 0.37 |
| U26A A28U G33A | 0.17 |
| U26A A56U U72C | 0.43 |
| U25G A45U U60C | 0.07 |
| U25G A45U A57G | 0.07 |
| U26A A56G U60C | 0.45 |
| U25G A45U U49A U58A U66C | 0.27 |
| U25G C27U U31A C44U A64U U76C | 0.11 |
| U25C U51G U72C | 0.21 |
| U26A A28G A56U U58A | 0.14 |
| U26A A57G C62U U76C U78C | 0.14 |
| U26A G63A A77G | 0.69 |
| U25C U54A A56G | 0.2 |
| U25C U49C A56G | 0.19 |
| U26A A28G U72C | 0.27 |
| U26A G42A U58C A77U | 0.05 |
| U26A U31C G46U | 0.16 |
| U26A U31G A45G C50U U54C A56G A77G | 0.08 |
| U25C U66C A75U | 0.32 |
| U25C U60A U78C C81A | 0.21 |
| U26A G30A U31C A56G G61C G63U | 0.06 |
| U25C U54A U66C | 0.18 |

| Variant | self-cleavage |
| --- | --- |
| U26A A35U U67C | 0.15 |
| U26A A47G U67C | 0.24 |
| U26A A28G U51C G63U U78C U80C | 0.26 |
| U25G A65G U72A | 0.08 |
| U25G C32G A56U A57U U80C | 0.24 |
| U26A G36A U51C A75U | 0.14 |
| U26A A28G C50G | 0.09 |
| U26A A35U U58A | 0.41 |
| U25C U51C U54A U74C A75G | 0.08 |
| U25C U69A U72C | 0.33 |
| U25C U51C U67C | 0.13 |
| U26A A28U U48A U60A G63A U69C | 0.06 |
| U26A C27A A75G U80C | 0.15 |
| U26A A35G A56G A57G | 1.12 |
| U25C U54C A65U | 0.1 |
| U25C U54C A65C | 0.36 |
| U25C U54A U72C | 0.27 |
| U26A C39U U43A | 0.24 |
| U26A C40A G55U U69C U78C | 0.07 |
| U26A U31C U43C G46U U66A U80C | 0.12 |
| U25C U51A U54A A64G | 0.22 |
| U25C U51A U54C U78C | 0.17 |
| U25C U51A U66C U74A | 0.08 |
| U26A A35U U67C C81U | 0.09 |

| Variant | self-cleavage |
| --- | --- |
| U25C U54C A64U U67C U80A | 0.14 |
| U25C U60A A65G | 0.23 |
| U25C U51C U69C U72C | 0.08 |
| U25C U69A U76A U78C | 0.25 |
| U26A A45G A56G A57U U67C | 0.1 |
| U26A C29A A57G | 0.13 |
| U25G U31C U51A | 0.18 |
| U25G U26A A64U A65G U80A | 0.08 |
| U26A C38G U41C A45U | 0.16 |
| U26A A45G A64U | 0.4 |
| U25C U72A U78A | 0.17 |
| U25C U58A U67C | 0.13 |
| U26A A56G A64G | 0.65 |
| U26A A35G G53A A56G A57G | 1.04 |
| U26A C29G U51C A56G | 0.2 |
| U25G U26A U72C | 0.38 |
| U25C U67C U72C | 0.19 |
| U25C U67C U72A | 0.07 |
| U26A U31A G52C A57U | 0.16 |
| U26A A45G U54A U72C | 0.84 |
| U25C U49C U54C | 0.08 |
| U25C U49C U54A | 0.15 |
| U26A U31C U66C | 0.17 |
| U26A U31C U66G | 0.18 |

| Variant | self-cleavage |
| --- | --- |
| U26A G30U C34U A45C U58A A75U | 0.09 |
| U26A U31A A35G A47C U69A | 0.1 |
| U25G U54A U58C U66C | 0.13 |
| U26A G42A A57G | 0.11 |
| U25C U49C U51A A56U | 0.18 |
| U25C U51C A64G | 0.56 |
| U25C U51C U69C | 0.2 |
| U26A A57G C68U | 0.67 |
| U25G A35G U60C | 0.42 |
| U26A A35C U54C A65C | 0.09 |
| U26A A28U U60A U67A | 0.16 |
| U26A C27U U41A A47G | 0.1 |
| U26A A45G U74C | 1.07 |
| U26A A28U U49A U60C | 0.93 |
| U26A C27U U51G | 0.3 |
| U25C U58C U80C | 0.55 |
| U26A A45C U76A | 0.32 |
| U25C U58C G63A U74A U80C | 0.17 |
| U26A G42A A45G A56G | 0.09 |
| U25C U49C U51A U58C | 0.18 |
| U25C U49C A57G U76C | 0.41 |
| U26A A64U U80C | 0.36 |
| U25G A47G U74C | 0.29 |
